Hit rate of the full screen: of about 48,000 compounds, about 1,200 (2.5%) were called active. About 2% were inconclusive and are not listed.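 How the source made its calls: active means activation of at least 60% and not above a set upper limit (about 1 call in 100 departs from these limits); inconclusive means activation of 40% to 60%, or above that upper limit; inactive means activation under 40%.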 This is one part of the list.
The compounds below were run against Probable G-protein coupled receptor 32 (Homo sapiens) (UniProt O75388) (assay: qHTS for Agonists of Human Resolvin D1 Receptor DRV1). Conditions: CHO-K1 GPR32 beta-arrestin PathHunter luminescence, 90 min; at 76.9 µM; active compounds read high; zero percent set by DMSO-only wells.
Method in brief: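 PathHunter beta-arrestin recruitment in CHO-K1 cells stably expressing ProLink-tagged GPR32. Cells were exposed to compound for 90 min at 37 C, then chemiluminescence was read after 1 h detection at ambient temperature; DMSO served as basal control.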
Further: 0% is about no effect.

Chain of UniProt O75388 (O75388 whole entry, looked up): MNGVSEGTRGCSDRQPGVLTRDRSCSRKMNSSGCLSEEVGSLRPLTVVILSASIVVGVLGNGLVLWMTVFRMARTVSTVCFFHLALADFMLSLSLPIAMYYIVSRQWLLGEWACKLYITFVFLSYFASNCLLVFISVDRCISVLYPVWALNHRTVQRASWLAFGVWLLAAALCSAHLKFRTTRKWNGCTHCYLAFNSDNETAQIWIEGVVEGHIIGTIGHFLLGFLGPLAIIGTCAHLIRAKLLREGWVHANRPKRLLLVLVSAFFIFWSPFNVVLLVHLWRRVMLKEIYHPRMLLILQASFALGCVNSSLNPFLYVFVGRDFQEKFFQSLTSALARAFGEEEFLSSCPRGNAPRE

activation, inactive:
Cc1ccc(CCNC(=O)C2CCN(c3nnc(C)c4c(C)n(-c5ccccc5)nc34)CC2)cc1 -0.964%, COc1ccc(C)cc1NCc1nnc2n1CCCCC2 11.1%, Cc1cc(OC(C)C(=O)N(Cc2ccco2)Cc2ccccc2F)cc(C)c1Cl (centres undefined) -14.6%, O=C(CCCCn1c(=O)c2ccccc2n(Cc2ccc(Cl)cc2)c1=O)NCc1ccccc1Cl -5.32%, CCc1ccccc1NC(=O)c1ccc(F)c(S(=O)(=O)NC2CCCCCC2)c1 -26%, Cc1ccc(NC(=O)CSc2nc3ccccc3c3nc(CCn4cncc4C)nn23)cc1F 33.9%, Cc1ccc(NC(=O)CSCc2cnn(-c3ccccc3)c2-n2cccc2)c(C)c1 -13%, CCOc1cccc2sc(N(Cc3cccnc3)C(=O)C3CCCCC3)nc12 -32.7%, Cc1ccc(C)c(N2CCN(CCCNC(=O)C3COc4ccccc4C3)CC2)c1 (centres undefined) 6.95%, CN1CCN(C(c2ccccc2Cl)c2sc3nc(-c4ccco4)nn3c2O)CC1 (centres undefined) -14.8%, CCC(=O)N1CCc2cc(Br)cc(S(=O)(=O)N3CCN(c4ccc(C(C)=O)cc4)CC3)c21 -2.24%, Cc1cccc(NC(=O)c2ccc(C(=O)Nc3cccc(C)c3C)cc2)c1C -1.23%, COc1ccccc1CNC(=O)CC1N=C2c3ccccc3N=C(SCC(=O)Nc3ccc(F)cc3)N2C1=O (centres undefined) 5.6%, O=C(c1nc(-c2ccc(Cl)cc2)n2c1CCCCC2)N1CCN(c2ccccc2F)CC1 22.3%, COc1ccccc1Nc1nn2c(=O)c3ccc(C(=O)N4CCC(C)CC4)cc3nc2s1 -2.71%, O=C(Cn1nc(-c2ccccc2)ccc1=O)NCc1ccc(F)cc1Cl -18%, COc1ccc(S(=O)(=O)Nc2cccc(-c3ccc(N4CCOCC4)nn3)c2)cc1F -3.08%, COc1cc(NC(=O)c2c(-c3ccc(C)cc3)nnc3ccccc23)cc(OC)c1OC -3.23%, Cc1oc2c(c1C(=O)Nc1cccc(Br)c1)C1=NCCN1C=N2 -14.4%, CC1=C(C(=O)OC2CCCC2)C(c2ccc(F)cc2F)CC(=O)N1 (centres undefined) 15.2%, Cc1ccc(CS(=O)(=O)c2cn(CC(=O)N(C)c3ccccc3)c3ccccc23)cc1 -5.52%, Cc1nc2scc(C)n2c(=O)c1S(=O)(=O)NCc1ccccc1Cl 2.79%, CC(=O)c1ccc(N2C(=O)N(Cc3cccc(C(F)(F)F)c3)c3ccccc3S2(=O)=O)cc1 2.01%, CC(=O)Nc1ccc(NC(=O)CCCc2nc(-c3ccc(C(C)(C)C)cc3)no2)cc1 0.62%, Cc1ccc(NC(=O)c2cc(C)nn2-c2ccccc2)cc1 -14.8%, COc1ccc(N(Cc2cccs2)C(=O)c2ccccc2C)cc1 -14.5%, CCOc1cc(C(=O)Nc2ccc3oc(-c4ccc(F)cc4Cl)nc3c2)cc(OCC)c1OCC -1%, CCCCNC(=O)CCC(=O)NNc1nc2ccccc2c2nc(-c3ccccc3)nn12 1.53%, COc1ccc(OCC(=O)NCC2(N3CCN(C)CC3)CCCCC2)cc1 -2.7%, COc1cc(C2C(=O)N(C3CCCCC3)CC(=O)N2C2CCCC2)ccc1OC(C)C (centres undefined) -17.7%, O=C(CSc1nc(-c2ccc(F)cc2)cc(C(F)(F)F)n1)NCc1ccccc1 24.4%, CCOC(=O)c1ccc2c(c1)N(Cc1cccc(OC)c1)C(=O)c1ccccc1S2(=O)=O -5.27%, Cc1cccc(C(=O)Nc2c3c(nn2-c2ccc(Cl)cc2)CS(=O)(=O)C3)c1 -19%, O=[N+]([O-])c1cc(-c2nc(-c3ccccc3)no2)ccc1NCC1CCCO1 (centres undefined) -8.46%, CC(C)(C)OC(=O)N1CCC(c2c(C(=O)NC3CCN(Cc4ccccc4)CC3)cnn2-c2cccc(F)c2)CC1 -7.96%, CCOC(=O)c1c(-c2ccccc2)oc2ccc(NS(=O)(=O)c3ccc(OC)cc3)cc12 -35.5%, O=S(=O)(c1ccc(F)cc1)N1CCC(Oc2ccc(-n3cnnn3)cc2)CC1 -5.74%, COc1cccc(CNC(=O)c2nnn(CC(=O)Nc3cc(Cl)ccc3C)c2N)c1 -2.51%, CCC(=O)N1CCc2cc(Br)cc(S(=O)(=O)CCC(=O)Nc3cccc(CC)c3)c21 26%, Cc1ccc(-c2ccc(=O)n(Cc3ccc(F)cc3)n2)cc1 14.8%, COc1cccc(CNC(=O)Cn2c(=O)oc3cc(S(=O)(=O)N4CCCC4)ccc32)c1 19.9%, Cc1ccc(Nc2cc(C)nc3nc(Cc4ccc(Cl)cc4)nn23)cc1 -0.249%, Cc1cccc(N2C(=O)C(CC(=O)Nc3cccc(F)c3)N(Cc3cccs3)C2=O)c1 (centres undefined) -11.2%, CCOc1ccc(CCNC(=O)CCCc2cc(-c3ccc(OCC)cc3)on2)cc1 16.6%, Cc1ccc(CN2CCSc3ccc(C(=O)Nc4ccc(Cl)cc4)cc32)cc1 -8.99%, CCCN(CCC)CCCNC(=O)c1cc2c(=O)oc3ccc(C)cc3c2s1 -2.96%, CCn1cc(C(=O)N2CCN(c3cc(Cl)ccc3C)CC2)c2cc(OC)c(OC)cc2c1=O 17.9%, CC(NC(=O)C1(c2cccs2)CCOCC1)c1ccccc1 (centres undefined) -9.65%, Cc1nc2cccnc2n1C1CCN(S(=O)(=O)c2ccc(Cl)cc2)CC1 48.7%, Cc1ccccc1CN1CCC(CNc2ncnc3onc(-c4ccc(Cl)cc4)c23)CC1 10.7%, CN(C)S(=O)(=O)n1cc(/C=C(\NC(=O)c2ccccc2F)C(=O)NCCCn2ccnc2)c2ccccc21 5.26%, O=C(Cc1csc2ccccc12)NCc1cccc(Br)c1 -1.02%, Cc1ccc2nc(/C(C#N)=C/c3cccc(Br)c3)[nH]c2c1 25.7%, Cc1ccc(NC(=O)C2CCCN(c3ncnc4c3nc3n4CCCCC3)C2)cc1F (centres undefined) 2.64%, O=C(O)CC(NS(=O)(=O)c1ccc(Cl)s1)c1ccccc1 (centres undefined) 10.6%, Cc1nc2cccnc2n1-c1cccc(C(=O)NCc2ccc(OC(C)C)cc2)c1 8.01%, COc1cc(NS(=O)(=O)c2ccc(NC(=O)C(C)Oc3ccc(Cl)cc3Cl)cc2)nc(OC)n1 (centres undefined) 7.77%, CCOc1ccc(NC(=O)c2c(NC(=O)c3ccco3)sc3c2CCC(C(C)(C)C)C3)cc1 (centres undefined) -7.1%, Cc1cc(C)cc(Oc2coc3c(CN4CCN(C)CC4)c(O)ccc3c2=O)c1 27.7%, O=C(NCc1ccccc1Cl)C1CCN(S(=O)(=O)c2ccc3c(c2)CCCN3C(=O)C2CCC2)CC1 -7.11%, CCC12CN3CC(C)(CN(C1)C3c1ccc(O)cc1O)C2=O (centres undefined) -9.17%, Cc1cc(C)n(CC(=O)Nc2ccc(F)c(F)c2)c(=O)c1C#N -4%, O=C(Cn1c(=O)n(Cc2ccco2)c(=O)c2ccc(C(=O)NC3CCCC3)cc21)Nc1ccc(F)cc1 -4.06%, COc1ccc(-n2nc(C(=O)NCCc3ccc(Cl)cc3)c3c4ccccc4n(C)c3c2=O)cc1Cl 10.1%, COc1ccc(CCNC(=O)c2c(O)nc3cc(C)ccn3c2=O)cc1OC -4.33%, O=C(Cn1nc2c(cc1=O)CCCC2)Nc1ccc(F)cc1F 0.297%, Cc1cc(-c2ccc(C)c(S(=O)(=O)N3CCCC(C)C3)c2)on1 (centres undefined) -9.56%, CCc1ccc(CNC(=O)c2ccc(CSc3nc4ccncc4n3Cc3ccc(OC)cc3)cc2)cc1 -7.59%, COc1ccc(N2CCN(C(=O)Cc3coc4ccc(C)cc34)CC2)cc1 -21.6%, CCOC(=O)c1c(NC(C)=O)c2c3c(sc2n1Cc1nc(-c2ccc(Cl)cc2)oc1C)CCCC3 -20%, CC(=O)c1cccc(NC(=O)CCS(=O)(=O)c2cc3c(cc2C)NC(=O)CO3)c1 -5.18%, CCN(CC)C(=O)C1=C(C)Nc2nc3ccccc3n2C1c1ccc(Br)cc1 (centres undefined) 5.45%, CCc1noc(-c2ccc(NC(C)c3ccccc3)c([N+](=O)[O-])c2)n1 (centres undefined) 1.5%, CC(C)Oc1cccc(NC(=O)C2CCN(S(=O)(=O)Cc3ccccc3)CC2)c1 -3.23%, COc1ccc(C)cc1NC(=O)C(=O)NCCc1sc(-c2ccc(Cl)cc2)nc1C 12.9%, Cc1ccccc1-c1nnc(CN2CCN(c3cc(Cl)ccc3C)CC2)o1 -12.7%, CCOC(=O)c1c(S(=O)(=O)N2CCC(C(=O)N3CCN(c4cccc(C)c4C)CC3)CC2)c(C)n(C)c1C 15%, CCC(CC)C(=O)Nc1cc(-c2cn3cccnc3n2)ccc1OC -12.8%, CCOc1ccccc1C1N=C(N)Nc2nc3ccccc3n21 (centres undefined) -7.59%, Cc1nc(N2CCCC2)c2c(C(=O)Nc3ccc(C)c(Cl)c3)c(C)oc2n1 -25.3%, O=C(CSc1nnc(COc2ccc(Cl)cc2)o1)Nc1ccccc1 -2.89%, CCOc1ccc(C(=O)Nc2c(C(=O)c3ccccc3)oc3ccccc23)cc1 -8.12%

activation, active:
O=C(Nc1cccc(C(F)(F)F)c1)C1CCN(c2nnc(-n3cccc3)s2)CC1 93.8%, O=S(=O)(Nc1cccc(Cl)c1)c1ccc2[nH]c3c(c2c1)CCCCCC3 61.7%
